According to PubChem BioAssay AID1671193 (National Center for Advancing Translational Sciences (NCATS), 2021):
In all, about 150,000 compounds went through this assay and about 180 (0.12%) were called active. The shares of active, inactive and inconclusive entries below differ from those in the screen. The call rests on the fitted dose curve; in most records, active means well fitted cell-killing curve with a large enough effect; inconclusive means small, poorly fitted or top-dose-only effect, or effect the other way; inactive means flat fitted curve, though single readings scatter. A potency beside an inconclusive call is a rough fit, not a confirmed value.

Test: GF-AFC viability counterscreen for inhibitors of alpha-synuclein gene (SNCA) expression; further: nearly all actives have a fitted effect of over 30% in size;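 on activity change, negative = cytotoxicity: 0% = DMSO-treated cells and -100% = medium-only wells without cells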
Conditions: HEK-293-SNCA-luc viability, GF-AFC fluorescence, 24 h; activity change, negative = cytotoxicity: at 57.1 µM (top of the series) unless noted
In short: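 Cytotoxicity counterscreen: after 24 h compound treatment of genome-edited SNCA-luciferase HEK-293 cells, live-cell protease substrate GF-AFC read by fluorescence after 30 min; activity scaled between DMSO (0%) and medium-only (-100%), curves Hill-fitted.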
Potency means the concentration at half of the fitted maximal effect; tags describe the fitted curve by direction and shape.

Compound | activity change, negative = cytotoxicity | Potency
COc1ccccc1-c1cccc(C(=O)N2CCN(C(=O)c3ccc(C(F)(F)F)cc3)CC2)c1 | inactive: 5.54% [at 12.5 µM] | 
CC1=C[C@@H](CNS(=O)(=O)Cc2ccccc2)[C@H](C(C)C)C[C@H]1CC(=O)N1CCOCC1 |  | inconclusive: 17.8 µM [cytotoxic, partial curve, poor fit]
CCOC(=O)c1cnn(-c2ccc(NC(=O)C(Cl)=C(Cl)Cl)cc2)c1C(F)(F)F |  | inconclusive: 33.6 µM [cytotoxic, single point]
Cc1ccc(-c2ccc3nnc(CNC(=O)CSc4ccncc4)n3n2)cc1 |  | inactive
COc1ccc(CC(=O)N2CCC[C@H]2c2nc(-c3ccc(OC)c(OC)c3)no2)cc1Cl |  | inactive
N#Cc1ccc(N2N=C3c4ccc(C(=O)O)cc4CC[C@@H]3[C@@H]2C2CCCC2)cc1Cl |  | inconclusive: 23.8 µM [rising, partial curve]
CCCC(=O)Nc1ccc(NC(=O)C2CC(=O)N(CC(C)C)C2)cc1OC (configuration not stated) |  | inactive
COc1ccc(C(=O)N2C[C@@H](CO)[C@H](N(C)C)C2)cc1 |  | inconclusive: 8.91 µM [cytotoxic, single point]
COc1ccc([C@H]2CNC(=O)C2)cc1OC1CCCC1 |  | inconclusive: 0.0084 µM [rising, full curve]
N#C/C(=C\c1ccc(-c2ccc(F)cc2F)o1)c1nc2ccccc2[nH]1 |  | inconclusive: 2.51 µM [rising, single point]
Cc1ccc(NC(=O)CN2C(=O)COc3ccc(S(=O)(=O)N4CCCCCC4)cc32)cc1C |  | inconclusive: 12.6 µM [cytotoxic, partial curve, poor fit]
O=C1NCCCCCCN(C(=O)CCC2CCCC2)[C@H]2C[C@H](c3nc(Cc4ccccc4)no3)C[C@@H]12 |  | inactive
Cc1occc1C(=O)N[C@@H]1CN(c2ncccn2)C[C@H]1CO |  | inactive
CCN(Cc1ccncc1)C(=O)c1ccc2c(c1)C(O)CCCCCN2C (configuration not stated) |  | inconclusive: 8.91 µM [cytotoxic, single point]
CN1C(=O)CCN(C(=O)CC(C)(C)C)CC(OCC(N)=O)c2ccccc21 (configuration not stated) |  | inconclusive: 3.98 µM [cytotoxic, single point]
COc1ccc(N2C(=O)C3(CCCCC3)C2C(=O)NCCc2ccncc2)cc1 (configuration not stated) | inconclusive: -13.3% | 
CC(C)Oc1ccc(CNC(=O)CCn2c(=O)c3cccn3c3ccc(F)cc32)cc1 |  | inactive
O=C(Nc1cccc(C(F)(F)F)c1)N[C@H]1[C@H](O)[C@@H](N2CCOCC2)[C@@H]2OC[C@H]1O2 |  | inactive
COc1ccc(-c2nc(C(C)C)nc3c2CCN([S+](=O)([O-])c2cccs2)CC3)cc1 |  | inactive
O=C(c1ccccc1)N1CCn2ncc(C(=O)N3CCOCC3)c2C1 |  | inconclusive: 8.91 µM [cytotoxic, single point]
CCN(CC)C(=O)Cn1c(SCCOc2ccc(Cl)cc2)nc2ccccc21 |  | inconclusive: 14.1 µM [cytotoxic, partial curve]
CCCCN(C)C(=O)C1CCC(CNS(=O)(=O)c2ccc3c(c2)CC(C)N3C(C)=O)CC1 (configuration not stated) |  | inconclusive: 44.7 µM [cytotoxic, partial curve, poor fit]
CCCCN(C)C(=O)Cn1c(C2CC(=O)N(c3ccc(C)cc3)C2)nc2ccccc21 (configuration not stated) |  | inconclusive: 2.24 µM [cytotoxic, partial curve, poor fit]

Compound | activity change, negative = cytotoxicity | Potency
Cc1noc2c(-c3cccnc3)cc(-c3cccc(C(F)(F)F)c3)nc12 |  | inactive
CS(=O)(=O)N(CC(=O)Nc1ccc(Br)cc1)c1ccccc1Br |  | inconclusive: 39.8 µM [cytotoxic, single point]
O=C(c1cc2n(n1)CC(c1ccc3c(c1)OCO3)OC2)N1CCCC1 (configuration not stated) |  | inconclusive: 39.8 µM [rising, single point]
CCOc1ccc(NC(=O)Cn2ccn3nc4c(c3c2=O)CC(C)CC4)cc1 (configuration not stated) |  | inconclusive: 39.8 µM [cytotoxic, single point]
Cn1cc(CCC(=O)NCc2ccc(Cl)cc2)c2ccccc21 |  | inconclusive: 7.08 µM [rising, single point]
COCC(=O)N[C@@H]1C[C@H](COC)[C@@H](O)[C@H]1O |  | inactive
CCCN(CCC)C(=O)CN1C(=O)CSc2ccc(S(=O)(=O)N3CCC(C)CC3)cc21 |  | inconclusive: 12.6 µM [cytotoxic, partial curve, poor fit]
COc1cccc(C(=O)c2cn(CC(=O)Nc3cccc(C(F)(F)F)c3)c3nc(C)ccc3c2=O)c1 |  | inconclusive: 25.1 µM [cytotoxic, single point]
Cn1c2c(c3ccccc31)CN(C(=O)Nc1ccccc1)CC2 |  | inactive
Cc1ncoc1C(=O)N1CCCN(S(=O)(=O)c2ccccc2)CCC(=O)NCC1 |  | inconclusive: 12.6 µM [cytotoxic, partial curve, poor fit]
COc1ccc(-c2cc3ccc(O)c(CN4CCCC(C)C4)c3oc2=O)cc1 (configuration not stated) |  | inconclusive: 14.1 µM [rising, partial curve]
CC(C)NC(=O)NC1CC2(CCN(C(=O)Cc3cnc[nH]3)CC2)c2ccccc21 (configuration not stated) |  | inactive
OCCNC1CCCc2c1[nH]c1ccc(-c3ccccc3)cc21 (configuration not stated) |  | inconclusive: 37.7 µM [cytotoxic, single point]
Cc1cccc(-n2nc(C)c(CCC(=O)N(C)C(C)C)c2Oc2ccccc2C)c1 |  | inconclusive: 10 µM [cytotoxic, partial curve]
COC(=O)[C@@H]1Cc2nc[nH]c2CN1Cc1ccc(C(=O)O)cc1 |  | inactive
COc1ccc(OC)c(NC(=O)CSc2cn(CC(=O)N3CCCCCC3)c3ccccc23)c1 |  | inconclusive: 22.4 µM [cytotoxic, single point]
CN1CCN(c2ccc(-c3noc([C@@H]4CCCN4CCCc4ccccc4)n3)cn2)CC1 |  | inactive
CC(C)c1nccn1CCCNC(=O)c1ccc(-c2ccc(F)cc2)nc1 |  | inconclusive: 31.6 µM [cytotoxic, single point]
COc1ccc(CC(=O)NC2CCCc3c2[nH]c2ccccc32)cc1OC (configuration not stated) |  | inactive
C=CCNC(=O)CCc1c(C)nn(-c2ccc(F)cc2)c1Oc1ccc(F)cc1F |  | inactive
Cc1nn(-c2ccc(C(C)C)cc2)c(C)c1[C@@H]1C=C[C@@H](NC(=S)NC2CCCCC2)C1 |  | inactive
CCOC(=O)N1CCN(Cc2nc3cc(NC(=O)C(C)C)ccc3n2C(C)C)CC1 |  | inactive
CCc1cccc(NC(=O)C2Cc3ccccc3N2C(=O)c2ccccc2)c1 (configuration not stated) |  | inconclusive: 1.58 µM [cytotoxic, full curve, poor fit]

Compound | activity change, negative = cytotoxicity | Potency
CCn1cc(S(=O)(=O)N2CCC(c3noc(-c4ccccn4)n3)C2)cn1 (configuration not stated) |  | inactive
COC[C@]1(O)CCN(C(=O)c2oc(COc3ccccc3)cc2C)CC1(C)C |  | inconclusive: 28.2 µM [cytotoxic, partial curve, poor fit]
C[C@@]12C(=O)OC(=O)[C@@]1(C)C1CCC2O1 |  | inconclusive: 15.2 µM [cytotoxic, partial curve, poor fit]
O=C(Nc1nc2n(n1)C(c1ccc(Cl)cc1)C=C(c1ccccc1)N2)c1ccco1 (configuration not stated) |  | inconclusive: 17.8 µM [rising, partial curve]
CCc1cccc(NC(=O)c2cc3n(n2)CC(c2ccc4c(c2)OCO4)OC3)c1 (configuration not stated) |  | inconclusive: 39.8 µM [rising, single point]
CCOc1ccc(C(=O)N(Cc2cc(OC)c(OC)c(OC)c2)c2ccccn2)cc1 |  | inconclusive: 28.2 µM [cytotoxic, single point]
COc1ccc(N(CC(=O)Nc2cccc(C(C)=O)c2)S(=O)(=O)c2ccccc2)c(OC)c1 |  | inconclusive: 22.4 µM [cytotoxic, partial curve, poor fit]
CN(C)c1cccc(-c2cnc3[nH]cc(CC(=O)NCc4cccnc4)c3c2)c1 |  | inactive
COc1ccc(CCN2C(=O)N(c3ccc(C)cc3)C(=O)C2CC(=O)Nc2ccc(F)cc2)cc1 (configuration not stated) |  | inconclusive: 25.1 µM [cytotoxic, partial curve, poor fit]
COc1ccc(OC)c(-c2nc3cc4c(cc3cc2CN2CCOCC2)OCO4)c1 |  | inactive
CN1Cc2ccc(NCc3ccccc3)nc2C(C)(C(=O)NCc2ccccc2)C1 (configuration not stated) |  | inactive
O=C(CN1C(=O)COc2ccc(C(=O)COc3cccc(F)c3)cc21)NCc1ccc2c(c1)OCO2 |  | inconclusive: 11.2 µM [cytotoxic, partial curve, poor fit]
CC(C)c1cc(C(=O)NC2CCN(c3ncccc3C#N)CC2)n(C)n1 |  | inactive
CC(C)[C@H](CO)Nc1nc(Nc2cccc(Cl)c2)c2ncn(C(C)C)c2n1 |  | active: 24.1 µM
COc1cc(NC(=O)c2cc3c(s2)-c2ccccc2OC3)cc(OC)c1OC |  | inconclusive: 39.8 µM [cytotoxic, single point]
CCc1noc([C@@H]2CC(F)(F)CN2C(=O)c2cc(C3CC3)[nH]n2)n1 |  | inactive
COc1ccc2nc(C[C@@H]3C[C@@H](C(C)C)[C@H](CNC(=O)[C@@H]4CCCC[C@@H]4C(=O)O)C=C3C)[nH]c2c1 |  | inactive
O=C(Cc1ccc2c(c1)OCCCO2)NC1CCCc2c1[nH]c1ccccc21 (configuration not stated) |  | inactive
COc1ccc(C(=O)N(C)C2CCc3nnc(C)n3CC2)cc1F (configuration not stated) |  | inactive
CC(C)c1nc2c(c(-c3ccc(Cl)cc3)n1)CCN(C(=O)c1ccc3c(c1)OCO3)CC2 |  | inconclusive: 31.6 µM [cytotoxic, single point]
CCOc1ccc(CC(=O)NCCc2csc(-c3ccc(C(F)(F)F)cc3)n2)cc1 |  | inconclusive: 39.8 µM [rising, single point]
